55 compounds from PubChem BioAssay AID1347073 (National Center for Advancing Translational Sciences (NCATS), 2019) can be followed below.

About 200 (0.44%) of roughly 45,000 compounds were called active. About 7% were inconclusive and are not listed. Calls follow the shape of the dose curve; as a rule, active = well fitted activation curve with a large enough effect; inconclusive = small, poorly fitted or top-dose-only effect; inactive = no such curve, though single readings can be large or run the other way. Some of the results follow.

A short description of this experiment: qHTS of TDP-43 Inhibitors: NCGC Sytravon Library Screen. Also: 0% is about no effect; nearly all actives have a fitted effect of over 55% in size. The following applies: yeast TDP-43 toxicity rescue, BacTiter-Glo growth, 24 h; series mostly up to 46.1 µM; growth rescue (activation): at the top concentration. In short, it runs like this:
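TDP-43-expressing yeast, pregrown in raffinose, seeded at OD600 0.02 in galactose medium with compound for 24 hr at 30 deg C. Growth read by BacTiter-Glo luminescence, so rescue of toxicity appears as activation.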
Background: In qHTS, concentration-response curves come from the screen itself.
For the compound `O=C(CCc1nnc(CCCc2ccccc2)o1)NC(C1CC1)C1CC1`, the “growth rescue (activation)” value was inactive: 19.6%.

As to `CCCc1nc2ccccc2c(C(=O)O)c1CC`, the “growth rescue (activation)” value is inactive: 18.2%.

For the compound `CCc1ccc(NC(=O)Cc2c(C(=O)O)n(C)c3ccccc23)cc1`, the “growth rescue (activation)” value is inactive: 8.21%.

As for `O=c1nc(N2CCCC2)nc(Nc2ccccc2)[nH]1`, the “growth rescue (activation)” value is inactive: 26.5%.

`Cn1c(CNC(=O)c2ccccc2F)nnc1SCC(=O)c1ccccc1`: the “growth rescue (activation)” value is inactive: 17%.

Consider `CCc1nc2c(OCc3ccc4c(c3)OCO4)cccn2c1N(C=O)Cc1ccccc1`, for which the “growth rescue (activation)” value was inactive: -2.89%.

For the compound `Cc1[nH]c2ccccc2c1C(c1ccccn1)N1CCCC1` (stereo not given), the “growth rescue (activation)” value is inactive: 2.17%.

As to `COC(=O)c1ccc(-n2c(C)cc(C(=O)CSc3ccc(NC(C)=O)cc3)c2C)cc1`, the “growth rescue (activation)” value was inactive: 1.1%.

Regarding `NC(c1ccc(F)c(F)c1)c1nc(-c2ccc3ccccc3c2)cs1` (stereo not given), the “growth rescue (activation)” value was inactive: 0.912%.

Regarding `CC(C)CCN1CCN(C2CCN(c3ccc4c(c3)OCO4)CC2)CC1CCO` (stereo not given), the “growth rescue (activation)” value is inactive: 6.41%.

As for `C/C(=N\NC(=O)c1cc2c(s1)CCC(C)C2)c1cccnc1` (stereo not given), the “growth rescue (activation)” value was inactive: 6.18%.

Turning to `O=C(Cc1ccccc1)NNC(=O)C1CCCC1`, the “growth rescue (activation)” value is inactive: -8.52%.

Regarding `O=C(CNC(=O)c1cccc(Br)c1)N/N=C/c1ccc[nH]1`, the “growth rescue (activation)” value was inactive: 14.2%.

In the case of `CC(C)c1cccc(C(C)C)c1NC(=O)CN1C(=O)NC2(CCCC2)C1=O`, the “growth rescue (activation)” value was inactive: -0.268%.

As to `COc1ccc2c(c1)C(C)=CC(C)(C)N2S(=O)(=O)c1ccc(NC(C)=O)cc1`, the “growth rescue (activation)” value is inactive: -16.4%.

As to `CCN(CC)C(=O)C1CCCN(Cc2nc(-c3cccs3)no2)C1` (stereo not given), the “growth rescue (activation)” value was inactive: 13.8%.

Take `O=C(CS(=O)(=O)Cc1ccccc1)Nc1nnc(C(F)(F)F)s1`: the “growth rescue (activation)” value is inactive: 7.42%.

Consider `O=C(CCN1CCN(Cc2ccccc2)CC1)NNC(=O)Cc1ccc(Cl)c(Cl)c1`, for which the “growth rescue (activation)” value is inactive: 2.47%.

As for `CC(=O)Nc1cc(C)c2nc(NC(C)=O)sc2c1`, the “growth rescue (activation)” value is inactive: -0.876%.

`CN1C(=O)C(=O)/C(=C(/O)c2ccc(Br)cc2)C1c1ccccc1F` (stereo not given): the “growth rescue (activation)” value is inactive: -9.66%.

Take `COC(=O)Nc1ccc(S(=O)(=O)N2CCCCC2C(=O)O)cc1` (stereo not given): the “growth rescue (activation)” value is inactive: -5.86%.

With `CCN(CC)S(=O)(=O)c1ccc(OC)c(NC(=O)CSCc2c(C)noc2C)c1`, the “growth rescue (activation)” value was inactive: -19.6%.

As to `CNc1cncc(-c2ccc(S(C)(=O)=O)cc2)n1`, the “growth rescue (activation)” value was inactive: 5.14%.

For the compound `Cc1ccccc1Cc1c(C)nc2nc(SCC(=O)NCCCN3CCCCC3)nn2c1C`, the “growth rescue (activation)” value is inactive: -4.27%.

For the compound `CN(C)c1ccc(/C=N/NC(=O)C(=O)N2CCCCCC2)cc1`, the “growth rescue (activation)” value is inactive: 3.12%.

`O=C(c1cnn(C(=O)COc2ccccc2F)c1)c1cc(F)ccc1O`: the “growth rescue (activation)” value was inactive: -5.34%.

Take `COc1ccc(CC2SC(=Nc3ccc(F)cc3)NC2=O)cc1` (stereo not given): the “growth rescue (activation)” value was inactive: -5.37%.

For the compound `COc1ccc([N+](=O)[O-])cc1NC(=O)C(C)N1CCCC1` (stereo not given), the “growth rescue (activation)” value was inactive: 6.98%.

For the compound `COc1ccc(CC(=O)NNC(=O)c2ccc(Br)s2)cc1OC`, the “growth rescue (activation)” value was inactive: -0.606%.

For the compound `CCCC[N+](CC#Cc1ccccc1)(CCCC)CCCS(=O)(=O)[O-]`, the “growth rescue (activation)” value was inactive: -27%.

Consider `O=C(COC(=O)c1ccc[nH]c1=O)NC1CCCc2ccccc21` (stereo not given), for which the “growth rescue (activation)” value was inactive: 35.3%.

For the compound `CCN(C(=O)CSc1ncn[nH]1)c1cccc2ccccc12`, the “growth rescue (activation)” value was inactive: 9.18%.

For the compound `O=C(N/N=C/C=C\c1ccccc1[N+](=O)[O-])c1cc(-c2ccccc2)nc2ccccc12`, the “growth rescue (activation)” value was inactive: -9.54%.

Turning to `O=C(c1ccccc1)C1CN(Cc2ccccc2)CCC1(O)c1ccccc1` (stereo not given), the “growth rescue (activation)” value was inactive: 1.14%.

Take `CCOc1ccc2nc(NC(=O)CSc3nc4cccnc4n3C)sc2c1`: the “growth rescue (activation)” value is inactive: -1.78%.

As for `COc1ccc(CCNc2nc3ccc(Cl)cc3n3cnnc23)cc1OC`, the “growth rescue (activation)” value was inactive: -4.01%.

As for `COc1ccc(S(=O)(=O)N(Cc2ccccc2)c2ccccc2C(=O)Nc2ccccc2C(=O)NCc2ccco2)cc1`, the “growth rescue (activation)” value is inactive: 7.09%.

For the compound `COc1ccc(/C=C/C(=O)NCc2cccnc2)cc1`, the “growth rescue (activation)” value is inactive: 16.3%.

As for `CCOC(=O)C1(CC2CCCCO2)CCN(Cc2nc3ccccc3nc2C)CC1` (stereo not given), the “growth rescue (activation)” value was inactive: -19.3%.

Turning to `CCC(C)(C)NC(=O)CN(C(=O)CCC(=O)Nc1nccs1)c1ccc2c(c1)OCCO2`, the “growth rescue (activation)” value is inactive: -16.5%.

With `NNC(=O)c1sc(-c2ccc(Cl)cc2)cc1N`, the “growth rescue (activation)” value is inactive: 6.14%.

Take `Cc1ccccc1NC(=O)Cn1c(=O)n(CCCCCC(=O)NCc2ccccc2Cl)c(=O)c2sccc21`: the “growth rescue (activation)” value is inactive: -6.94%.

Take `Cn1c(SCC(=O)O)nnc1-c1ccc(NC(=O)c2ccc(Cl)c(Cl)c2)cc1`: the “growth rescue (activation)” value was inactive: 25.6%.

For `COc1cc(NC(=O)c2ccc(-c3cnn(C)c3)c3ccoc23)cc(OC)c1OC`, the “growth rescue (activation)” value is inactive: -4.16%.

As to `N#Cc1ccccc1S(=O)(=O)N1CCN(S(=O)(=O)c2ccc(Br)c(C(=O)O)c2)CC1`, the “growth rescue (activation)” value is inactive: 4.2%.

`CCCS(=O)(=O)NC(=O)C1(C)CCCN(C(=O)c2sccc2C)C1` (stereo not given): the “growth rescue (activation)” value was inactive: 2.25%.

With `COCCNC(=O)C1CCCN(Cc2ccc(-c3ccccc3)cc2)CC1` (stereo not given), the “growth rescue (activation)” value was inactive: 3.2%.

As for `O=C(CN(Cc1ccc(F)cc1)S(=O)(=O)c1ccccc1)N1CCCCC1`, the “growth rescue (activation)” value was inactive: 16.7%.

For the compound `OC(CNCc1ccc(Cl)c(Cl)c1)c1ccccc1` (stereo not given), the “growth rescue (activation)” value was inactive: 4.87%.

Regarding `Nc1c([N+](=O)[O-])c(=O)sc2ccccc12`, the “growth rescue (activation)” value is inactive: 2.47%.

`Cc1ccccc1OCC(=O)NCCNC(=O)c1cccnc1`: the “growth rescue (activation)” value was inactive: 14.9%.

For `CCOc1ccc(-c2[nH]ncc2-c2csc(C)n2)c(O)c1`, the “growth rescue (activation)” value was inactive: 1.82%.

Turning to `O=C(Cn1nc(C(=O)O)c2ccccc2c1=O)Nc1ccc2c(c1)OCO2`, the “growth rescue (activation)” value was inactive: 21%.

Regarding `CC1CCCCN1C(=O)CSc1nnc(-c2ccco2)o1` (stereo not given), the “growth rescue (activation)” value is inactive: 6.11%.

In the case of `Cc1cc(SCC(=O)c2cccs2)n2nc(C)c(-c3ccc(Cl)cc3)c2n1`, the “growth rescue (activation)” value was inactive: -40%.
